# About 14,000 (4.5%) of roughly 310,000 compounds showed an effect of 50% or more. Effects have a minus sign here. Some of the results follow.
# Biological target: human ether-à-go-go-related gene (hERG) potassium channel (human, UniProt Q12809)
# Assay: primary screen, population patch clamp on CHO cells stably expressing hERG
# 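Also: peak tail current of the secondary pulse compared with the same well before compound.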
# Sequence of human ether-à-go-go-related gene (hERG) potassium channel (Q12809 whole entry, looked up): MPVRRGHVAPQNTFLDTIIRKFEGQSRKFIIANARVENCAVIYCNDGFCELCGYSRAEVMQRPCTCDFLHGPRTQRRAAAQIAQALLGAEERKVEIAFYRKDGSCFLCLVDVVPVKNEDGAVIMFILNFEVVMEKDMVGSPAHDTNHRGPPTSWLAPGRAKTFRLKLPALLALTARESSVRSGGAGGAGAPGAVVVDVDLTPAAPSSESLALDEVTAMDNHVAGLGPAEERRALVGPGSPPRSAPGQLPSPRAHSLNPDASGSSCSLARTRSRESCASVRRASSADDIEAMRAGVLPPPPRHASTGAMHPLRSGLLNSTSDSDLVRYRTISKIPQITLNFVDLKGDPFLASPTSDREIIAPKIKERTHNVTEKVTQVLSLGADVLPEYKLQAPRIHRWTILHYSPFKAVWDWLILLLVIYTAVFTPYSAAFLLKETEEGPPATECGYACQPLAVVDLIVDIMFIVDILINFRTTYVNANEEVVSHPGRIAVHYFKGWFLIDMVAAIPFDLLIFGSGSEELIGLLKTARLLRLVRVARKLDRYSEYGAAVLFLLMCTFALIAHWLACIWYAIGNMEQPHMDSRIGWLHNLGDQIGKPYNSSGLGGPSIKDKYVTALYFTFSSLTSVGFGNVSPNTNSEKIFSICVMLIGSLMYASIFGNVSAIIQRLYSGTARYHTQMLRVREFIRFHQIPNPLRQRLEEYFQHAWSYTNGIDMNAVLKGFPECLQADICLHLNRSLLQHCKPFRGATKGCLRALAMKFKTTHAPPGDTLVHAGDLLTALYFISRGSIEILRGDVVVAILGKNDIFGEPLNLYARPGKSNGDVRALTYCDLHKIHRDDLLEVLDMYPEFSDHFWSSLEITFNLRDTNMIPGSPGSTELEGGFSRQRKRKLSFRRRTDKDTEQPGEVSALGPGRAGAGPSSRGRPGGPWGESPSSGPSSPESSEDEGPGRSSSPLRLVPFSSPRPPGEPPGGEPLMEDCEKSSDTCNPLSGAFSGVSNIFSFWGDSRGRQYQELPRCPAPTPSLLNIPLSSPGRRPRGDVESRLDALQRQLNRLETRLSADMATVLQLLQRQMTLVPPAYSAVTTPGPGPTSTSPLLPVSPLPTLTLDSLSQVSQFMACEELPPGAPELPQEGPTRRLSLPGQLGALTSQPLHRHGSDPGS
row,Structure (SMILES),"hERG current change (%, negative = inhibition) at 10uM [%]"
1,CCN(CC)C(NC(=O)c1ccccc1)C(=O)c1ccccc1 (centres unmarked),-9
2,Cc1ccc(CN2CCNC(=O)C2CC(=O)O)o1 (centres unmarked),12.5
3,CCCCSCc1cc(C(=O)O)oc1C(C)(C)C,-1.69
4,Br.Cc1ccc(-c2csc3nc(=O)c(C)nn23)cc1,-17.5
5,C[C@@H]1CC[C@H]2[C@@H](C)C(=O)O[C@@H]3O[C@@]4(C)CC[C@@H]1[C@]32OO4,0.204
6,COC(=O)C(C#N)c1nc2ccccc2nc1N1CCN(Cc2ccc3c(c2)OCO3)CC1 (centres unmarked),-2.48
7,COC(=O)c1ccc(N2CN=C(c3ccc(C)cc3)NC2=S)cc1,9.09
8,CCOc1ccc(CN2CCN(Cc3cn(CC)nc3C)CC2CCO)cc1 (centres unmarked),-62
9,CCOc1ccc2[nH]c3c(NCCN(C)C)ncnc3c2c1,-19
10,Cc1cc(C)n(-c2ccc(C(=O)N3CCC(CO)(Cc4ccccc4)CC3)cc2)n1,9.21
11,COc1ccc(OC)c2[nH]c(=O)c(CCNC(=O)CC(C)C)cc12,-3.44
12,Cc1cnc(NC(=O)COc2ccccc2)s1,5.14
13,CCN(CC)C(=S)Oc1ccc(Cl)cc1Cl,0.427
14,CN(C)/C=N/c1c(C#N)cnn1-c1nc2ccccc2s1,-0.379
15,Cc1ccc(S(=O)(=O)NNC(=O)c2cccc(O)c2)cc1,-1.05
16,CCCOc1ccc(C(=O)N2CCCc3ccccc32)cc1,-26
17,Fc1cnc(N2CCOCC2)nc1N1CCc2ccccc21,-19.5
18,Cc1cc(C)c2nc(-c3ccccn3)cc(C(=O)Nc3ccc(S(=O)(=O)Nc4cc(C)on4)cc3)c2c1,6.35
19,COC(=O)c1cc(OC)c(OC)cc1NC(=O)c1ccc(C)cc1,-0.935
20,CC(C)(C)OC(=O)N1CCN(C(=O)c2nc[nH]c2C(=O)N2CCN(c3ccccc3)CC2)CC1,17.9
21,Cc1cc(C)c(NC(=O)CN2C(=O)NC(CCc3ccccc3)C2=O)c(C)c1 (centres unmarked),0.776
22,CCn1cc(S(=O)(=O)Nc2ncccn2)cn1,4.17
23,Cc1cc(S(=O)(=O)N2CCOCC2)ccc1OCC(=O)NCc1ccco1,-22

row,Structure (SMILES),"hERG current change (%, negative = inhibition) at 10uM [%]"
1,COc1ccc(C=O)cc1COc1ccc(F)cc1F,-6.22
2,CSc1nnc(C2CCN(CC(=O)Nc3ccccc3N3CCOCC3)CC2)n1C(C)C,-6.96
3,Nc1cc(OC(=O)c2ccc(F)cc2)nn1S(=O)(=O)c1ccccc1,12.7
4,Cn1cc(C(=O)c2ccccc2)c2ccccc21,-6.04
5,CCOc1ccc(NC(=O)CSc2ccc(-c3ccco3)nn2)cc1,-2.59
6,COC(=O)c1cc(S(=O)(=O)N2CCN(c3ccccc3)CC2)c[nH]1,7.6
7,O=C(c1cccc(F)c1)N1CCCN(C(=O)c2cccc(F)c2)CC1,-6.95
8,Nc1cccc(NP(=O)(c2ccccc2)c2ccccc2)c1,11.7
9,CC1CCCCC1NC(=O)c1ccc(S(=O)(=O)NCc2ccco2)cc1 (centres unmarked),7.19
10,O=C(NCc1ccc2c(c1)OCO2)C(=O)NCC1OCCCN1S(=O)(=O)c1cc(F)ccc1F (centres unmarked),-3.49
11,COC(=O)C1CCN(C(=O)/C=C/c2ccc3c(c2)OCO3)CC1,11.4
12,Cc1ccc(NC(=O)C2CCN(C(=O)NCc3ccccc3)CC2)cc1C,13.9
13,Cc1sc(NC(=O)C2CCCCC2C(=O)O)c(C(N)=O)c1C (centres unmarked),1.69
14,CCSc1ncnc2sc(C)c(C)c12,-11.4
15,NC(=O)c1sc(=S)n(-c2ccc(Br)cc2)c1N,-23
16,CCc1nnc(NC(=O)CN2CCN(Cc3ccc(F)cc3)CC2)s1,-13.6
17,Nc1nc(SCc2ccc(Cl)c(Cl)c2)n[nH]1,10.4
18,Cc1c(S(=O)(=O)N2CCN(c3cccc(C(F)(F)F)c3)CC2)c(=O)n(C)c(=O)n1C,-2.03
19,O=C(NNC(=O)C1CCN(C(=O)Nc2ccccc2)CC1)c1ccc(F)cc1,11.3
20,Cc1cc(C)c2c(=O)[nH]c(=O)n(Cc3ccccc3)c2n1,6.73
21,COC(=O)Nc1ccc(S(=O)(=O)N2CCCC(C(=O)Nc3cccc4c3OCCO4)C2)cc1 (centres unmarked),5.26
22,CC(O)C(NS(=O)(=O)c1ccc(Cl)cc1)C(=O)OCc1cc([N+](=O)[O-])cc2c1OCOC2 (centres unmarked),-11.8
23,CCC[N+](C)(C)C(C)C(OC(C)=O)c1ccccc1.[I-] (centres unmarked),15.5

row,Structure (SMILES),"hERG current change (%, negative = inhibition) at 10uM [%]"
1,O=C(CSc1nc2ccccc2o1)NCC(=O)c1ccccc1,-3.02
2,O=C(CNC(=O)c1ccc2c(c1)OCCO2)N/N=C/c1ccc([N+](=O)[O-])cc1,15.9
3,NC(=O)C1CCN(CCCNC2CC(=O)N(Cc3ccc(N4CCCC4=O)cc3)C2=O)CC1 (centres unmarked),8.34
4,CCOC(=O)n1c(=O)n(Cc2cccc(F)c2)c2ccccc21,-30.5
5,CCOC(=O)c1nonc1NC(C)=O,16.2
6,CCCCC(OC(=O)c1ccco1)C(=O)NCc1ccc(C)cc1 (centres unmarked),-0.428
7,CCOC(=O)Cn1c(=NC(=O)c2ccc([N+](=O)[O-])s2)sc2ccccc21,-14.3
8,COc1ccc(S(=O)(=O)N2CCN(c3nc(-c4cccnc4)nc4ccccc34)CC2)cc1,-39
9,COCCCn1c(SCC(=O)Nc2ccc(C(C)=O)cc2)nc2ccccc2c1=O,-51.5
10,Cc1c(NC(=S)NC(=O)c2cccc(Cl)c2)c(=O)n(-c2ccccc2)n1C,15.5
11,CC(C)C1Nc2ccc(C(=O)NCc3ccco3)cc2NC1=O (centres unmarked),-5.2
12,O=S(=O)(NCc1ccco1)c1cnc(Cl)c(Cl)c1,-6.19
13,COc1ccccc1NC(=O)/C=C/c1cc([N+](=O)[O-])ccc1OC(F)F,2.86
14,COc1ccc(CN2CN(S(=O)(=O)c3ccccc3)c3nc4ccccc4nc32)cc1,1.04
15,CC1(C(=O)CSc2nc3ccccc3[nH]2)CCC(=O)O1 (centres unmarked),-70.8
16,CNC(=S)N/N=C/c1ccc(N(C)C)cc1,0.611
17,CC(C)(C)CN1CCC(Oc2cccc(C(=O)N3CCNC(=O)C3(C)C)c2)CC1,-15.2
18,O=C1CC(N2CCC(c3nc4ccccc4s3)CC2)C(=O)N1Cc1ccccc1 (centres unmarked),-43.9
19,CCOC(=O)c1c(C)[nH]c(C(=O)COC(=O)CNS(=O)(=O)c2ccc(C)cc2)c1C,11.8
20,CN(C)C(=O)c1ccc(-n2cccn2)nc1,7.34
21,CCOC(=O)c1c(C)[nH]c(C(=O)N2CCN(CC)CC2)c1C,20.7
22,Cl.N=c1sccn1CC(=O)Nc1cc(S(=O)(=O)N2CCCC2)ccc1Cl,-39.5
23,C[C@H](NC(=O)Nc1cccc(Br)c1)C(=O)O,14

row,Structure (SMILES),"hERG current change (%, negative = inhibition) at 10uM [%]"
1,COc1cccc(C2CC(c3cccc(Br)c3)n3nc(N)nc3N2)c1 (centres unmarked),-12.4
2,CCOCCCNCc1ccc(OCCC(C)C)c(OC)c1.O=C(O)C(=O)O,-16.2
3,CC(=O)Nc1ccc(C(=O)Nc2ccc(S(=O)(=O)N3CCOCC3)cc2)cc1,18.1
4,Cl.O=C(CCN(CCO)Cc1ccccc1)Nc1ccc(Br)cc1,-46.1
5,O=C(Nc1ccc(Cl)cc1)c1cccc(OC(=S)N2CCOCC2)c1,9.45
6,COc1ccc(C(=S)N2CCN(c3ccccc3C)CC2)cc1,-22.7
7,CCn1cc(/C=C(\NC(=O)c2cc(OC)c(OC)c(OC)c2)C(=O)N2CCN(C)CC2)c2ccccc21,13.7
8,Br.CCN(CC)CCn1c(=N)n(CCOc2ccccc2)c2ccccc21,-53.6
9,Cl.OC(COc1ccc(OCC(O)CN2CCCCCC2)cc1)CN1CCCCCC1 (centres unmarked),9.75
10,CC1=C(C(=O)OC2CCCC2)C(c2coc3ccc(C)cc3c2=O)C2=C(CCCC2=O)N1 (centres unmarked),-13.1
11,CCOC(=O)CSc1nnc(CSc2nc3sc4c(c3c(=O)[nH]2)CCC4)n1-c1ccccc1,-14.8
12,Cc1ccccc1CC(=O)NCCN1CCOCC1,26.8
13,COc1ccc2cc(-c3csc(-c4cccnc4)n3)ccc2c1,22.6
14,Cc1ccc(C(=O)NNC(=O)CSc2nnc(C3CC3)n2C)cc1,1.12
15,O=[N+]([O-])c1ccc(N2CCOCC2)cn1,15.4
16,CCC(C)NC(=O)Cn1c(=O)n(CCCC(=O)NCc2ccccc2Cl)c(=O)c2ccccc21 (centres unmarked),-4.22
17,O=c1c2ccccc2[nH]c(=S)n1CCCN1CCN(c2ccccc2F)CC1,-2.57
18,O=C(N/N=C/c1ccccn1)c1cc(-c2ccc(Cl)cc2)nc2ccccc12,-10.4
19,CCc1nc(N2CCN(C(=O)c3ccccc3)CC2)c2c3c(sc2n1)CCCC3,-12.2
20,CN1[C@@H]2CC[C@H]1CC(OC(=O)C1C=Nc3ccccc31)C2.Cl (some centres unmarked),-38.7

# From publication PMC4336329 (PLoS ONE, 2015)
